Measurements: article PMC8854406
No constants are given. Whether binding was seen depends on the method and setting. For some of these results: Binding seen in cells or lysates may run through a third protein. Some entries that bind do so weakly or less than the wild type. Where a sequence is shown, tags or fusion partners need not be part of it. Each block holds one binder with its values, some of them ahead of it.

Tests used:
[1] = molecular target: T1, KIRREL1 ΔICD mutant (lacking the ICD, a.a. 521-757) (UniProt Q96J84); assay: co-IP; HEK293T cells co-transfected; NP40 lysis buffer; cleared lysates incubated with anti-Flag tag or anti-Myc tag magnetic beads overnight at 4 °C; beads washed four times; immunoblot
T1 sequence: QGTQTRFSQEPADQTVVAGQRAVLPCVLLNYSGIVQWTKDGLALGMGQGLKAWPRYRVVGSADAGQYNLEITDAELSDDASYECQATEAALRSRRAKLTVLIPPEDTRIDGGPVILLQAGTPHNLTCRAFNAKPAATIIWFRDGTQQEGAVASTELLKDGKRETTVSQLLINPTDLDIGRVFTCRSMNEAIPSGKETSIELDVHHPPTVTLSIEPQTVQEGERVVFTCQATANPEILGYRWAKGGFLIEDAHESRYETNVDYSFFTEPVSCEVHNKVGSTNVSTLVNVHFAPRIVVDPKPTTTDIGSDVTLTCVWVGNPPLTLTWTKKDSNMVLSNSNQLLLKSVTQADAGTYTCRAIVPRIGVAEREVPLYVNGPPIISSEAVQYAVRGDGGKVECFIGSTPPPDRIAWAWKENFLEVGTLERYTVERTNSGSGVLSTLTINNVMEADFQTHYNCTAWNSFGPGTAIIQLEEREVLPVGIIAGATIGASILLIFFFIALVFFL

[2] = molecular target: T2, KIRREL1 ICD Δ3 mutant (a.a. 681-757 deleted) (UniProt Q96J84); assay: as above
T2 sequence: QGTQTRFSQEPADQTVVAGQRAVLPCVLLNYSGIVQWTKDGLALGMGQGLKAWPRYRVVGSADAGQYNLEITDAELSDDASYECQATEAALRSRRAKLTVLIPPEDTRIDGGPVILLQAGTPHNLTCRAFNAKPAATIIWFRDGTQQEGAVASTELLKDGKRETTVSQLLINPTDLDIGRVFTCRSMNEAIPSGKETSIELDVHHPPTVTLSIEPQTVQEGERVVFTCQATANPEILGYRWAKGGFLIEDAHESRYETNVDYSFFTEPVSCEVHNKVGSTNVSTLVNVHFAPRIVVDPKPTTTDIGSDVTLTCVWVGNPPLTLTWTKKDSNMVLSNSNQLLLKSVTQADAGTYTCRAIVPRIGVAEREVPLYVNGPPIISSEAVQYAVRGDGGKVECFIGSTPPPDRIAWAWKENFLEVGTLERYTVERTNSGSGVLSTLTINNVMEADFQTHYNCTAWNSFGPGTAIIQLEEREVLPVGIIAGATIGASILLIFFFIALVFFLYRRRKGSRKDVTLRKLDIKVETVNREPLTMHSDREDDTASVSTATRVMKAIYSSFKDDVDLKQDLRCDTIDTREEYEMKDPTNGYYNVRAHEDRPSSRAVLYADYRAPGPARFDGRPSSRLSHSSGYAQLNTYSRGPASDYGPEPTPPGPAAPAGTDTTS

[3] = molecular target: T3, Myc-KIRREL1-HA (full-length KIRREL1) (UniProt Q96J84); assay: as above
T3 sequence: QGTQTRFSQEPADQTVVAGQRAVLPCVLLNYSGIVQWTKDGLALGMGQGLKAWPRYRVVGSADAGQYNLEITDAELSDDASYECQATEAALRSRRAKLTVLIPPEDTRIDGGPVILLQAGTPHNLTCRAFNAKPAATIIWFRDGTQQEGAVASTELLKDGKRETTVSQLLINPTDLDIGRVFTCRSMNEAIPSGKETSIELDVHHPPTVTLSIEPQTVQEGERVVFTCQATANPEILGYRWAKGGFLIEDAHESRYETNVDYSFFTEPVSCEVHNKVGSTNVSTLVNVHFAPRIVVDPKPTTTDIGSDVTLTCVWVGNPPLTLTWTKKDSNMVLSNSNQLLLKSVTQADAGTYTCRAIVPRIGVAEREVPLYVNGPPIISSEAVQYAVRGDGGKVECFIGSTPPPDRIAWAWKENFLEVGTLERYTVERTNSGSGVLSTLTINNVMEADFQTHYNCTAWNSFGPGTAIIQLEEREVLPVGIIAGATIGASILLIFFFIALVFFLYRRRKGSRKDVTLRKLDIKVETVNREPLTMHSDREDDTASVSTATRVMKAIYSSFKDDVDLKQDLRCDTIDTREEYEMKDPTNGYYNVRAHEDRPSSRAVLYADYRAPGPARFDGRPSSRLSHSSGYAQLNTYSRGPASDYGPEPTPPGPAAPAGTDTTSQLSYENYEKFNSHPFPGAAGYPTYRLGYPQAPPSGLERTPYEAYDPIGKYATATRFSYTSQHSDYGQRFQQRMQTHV

[4] = molecular target: T4, KIRREL1 ICD Δ2 mutant (a.a. 601-680 deleted) (UniProt Q96J84); assay: as above
T4 sequence: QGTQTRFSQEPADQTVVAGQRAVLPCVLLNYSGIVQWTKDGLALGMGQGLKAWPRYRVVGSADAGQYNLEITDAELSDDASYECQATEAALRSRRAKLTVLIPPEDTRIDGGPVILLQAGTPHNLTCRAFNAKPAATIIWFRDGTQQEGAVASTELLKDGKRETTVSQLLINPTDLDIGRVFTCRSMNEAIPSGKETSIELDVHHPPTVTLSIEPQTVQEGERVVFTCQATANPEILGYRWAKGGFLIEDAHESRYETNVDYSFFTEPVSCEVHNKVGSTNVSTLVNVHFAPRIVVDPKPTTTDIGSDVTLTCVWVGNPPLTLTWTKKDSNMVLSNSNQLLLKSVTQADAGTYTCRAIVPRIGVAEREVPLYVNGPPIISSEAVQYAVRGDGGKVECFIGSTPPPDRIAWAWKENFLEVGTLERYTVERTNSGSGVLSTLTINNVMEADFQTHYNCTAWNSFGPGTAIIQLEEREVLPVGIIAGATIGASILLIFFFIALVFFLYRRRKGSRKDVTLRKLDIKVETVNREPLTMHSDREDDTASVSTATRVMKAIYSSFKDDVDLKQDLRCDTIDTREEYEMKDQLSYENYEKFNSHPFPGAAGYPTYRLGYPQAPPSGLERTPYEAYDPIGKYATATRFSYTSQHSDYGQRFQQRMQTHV

[5] = molecular target: T5, KIRREL1 ICD Δ1 mutant (a.a. 521-600 deleted) (UniProt Q96J84); assay: as above
T5 sequence: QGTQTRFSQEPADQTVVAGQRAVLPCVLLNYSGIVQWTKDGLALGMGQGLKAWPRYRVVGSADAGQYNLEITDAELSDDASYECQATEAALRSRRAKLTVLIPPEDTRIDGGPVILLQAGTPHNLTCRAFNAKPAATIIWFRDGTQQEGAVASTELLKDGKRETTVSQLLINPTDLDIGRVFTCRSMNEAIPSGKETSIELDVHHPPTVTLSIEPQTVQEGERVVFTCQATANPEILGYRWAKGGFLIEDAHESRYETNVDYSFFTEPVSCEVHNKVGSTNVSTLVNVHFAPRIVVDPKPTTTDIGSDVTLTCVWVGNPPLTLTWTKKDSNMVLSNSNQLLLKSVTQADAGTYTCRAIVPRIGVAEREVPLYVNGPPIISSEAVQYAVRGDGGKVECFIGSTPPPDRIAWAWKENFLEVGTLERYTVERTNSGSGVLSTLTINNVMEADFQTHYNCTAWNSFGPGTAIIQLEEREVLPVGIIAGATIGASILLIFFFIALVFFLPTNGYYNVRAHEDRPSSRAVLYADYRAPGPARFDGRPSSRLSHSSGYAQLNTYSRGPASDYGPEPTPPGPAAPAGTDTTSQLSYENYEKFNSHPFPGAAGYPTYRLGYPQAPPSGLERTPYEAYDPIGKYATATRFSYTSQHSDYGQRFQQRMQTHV

[6] = molecular target: T6, His-SUMO-tagged C-terminal fragment of the KIRREL1 ICD (ICD77 C-ter, a.a. 681-757) (UniProt Q96J84); assay: pull-down; Ni-NTA pull-down: purified His-SUMO-tagged KIRREL1 ICD fragments bound to Ni-NTA resin, incubated with HEK293T cell lysates expressing MST1 or SAV1 in NP40 lysis buffer overnight at 4 °C; washed four times; western blot; only the target purified
T6 sequence: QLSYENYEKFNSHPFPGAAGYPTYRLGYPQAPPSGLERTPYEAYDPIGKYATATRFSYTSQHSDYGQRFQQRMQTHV

[7] = molecular target: T7, His-SUMO-tagged N-terminal fragment of the KIRREL1 ICD (ICD80 N-ter, a.a. 521-600) (UniProt Q96J84); assay: as above
T7 sequence: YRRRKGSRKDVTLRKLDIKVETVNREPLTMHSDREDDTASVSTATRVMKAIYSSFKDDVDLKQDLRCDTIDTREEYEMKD

[8] = molecular target: T6, His-SUMO-tagged C-terminal fragment of the KIRREL1 ICD (ICD77 C-ter, a.a. 681-757); assay: pull-down; Ni-NTA pull-down: purified His-SUMO-tagged KIRREL1 ICD fragments bound to Ni-NTA resin, incubated with purified SAV1 (Origene) in NP40 lysis buffer for 4 h at 4 °C; washed four times; western blot; both purified
[9] = molecular target: T7, His-SUMO-tagged N-terminal fragment of the KIRREL1 ICD (ICD80 N-ter, a.a. 521-600); assay: as above
[10] = molecular target: T8, Myc-KIRREL1-HA (full-length KIRREL1), Q96J84; assay: co-IP; HEK293T cells co-transfected; NP40 lysis buffer; cleared lysates incubated with anti-Flag tag or anti-Myc tag magnetic beads overnight at 4 °C; beads washed four times; immunoblot; conditions: remark: other sources report otherwise
T8 chain: T3 sequence

binding [1]: no binding
binding [2]: no binding
binding [3]: binds
binding [4]: binds
binding [5]: binds
binding [6]: binds
binding [7]: no binding
B1: Flag-tagged SAV1 (full length) (protein, UniProt Q9H4B6 1-383)
chain: MLSRKKTKNEVSKPAEVQGKYVKKETSPLLRNLMPSFIRHGPTIPRRTDICLPDSSPNAFSTSGDVVSRNQSFLRTPIQRTPHEIMRRESNRLSAPSYLARSLADVPREYGSSQSFVTEVSFAVENGDSGSRYYYSDNFFDGQRKRPLGDRAHEDYRYYEYNHDLFQRMPQNQGRHASGIGRVAATSLGNLTNHGSEDLPLPPGWSVDWTMRGRKYYIDHNTNTTHWSHPLEREGLPPGWERVESSEFGTYYVDHTNKKAQYRHPCAPSVPRYDQPPPVTYQPQQTERNQSLLVPANPYHTAEIPDWLQVYARAPVKYDHILKWELFQLADLDTYQGMLKLLFMKELEQIVKMYEAYRQALLTELENRKQRQQWYAQQHGKNF

binding [8]: binds
binding [9]: no binding
B2: purified Flag-SAV1 (Origene) (protein, UniProt Q9H4B6 1-383)
chain: B1 chain

binding [10]: no binding
B3: Flag-tagged MST1, Q13043 1-487 (enzyme)
chain: METVQLRNPPRRQLKKLDEDSLTKQPEEVFDVLEKLGEGSYGSVYKAIHKETGQIVAIKQVPVESDLQEIIKEISIMQQCDSPHVVKYYGSYFKNTDLWIVMEYCGAGSVSDIIRLRNKTLTEDEIATILQSTLKGLEYLHFMRKIHRDIKAGNILLNTEGHAKLADFGVAGQLTDTMAKRNTVIGTPFWMAPEVIQEIGYNCVADIWSLGITAIEMAEGKPPYADIHPMRAIFMIPTNPPPTFRKPELWSDNFTDFVKQCLVKSPEQRATATQLLQHPFVRSAKGVSILRDLINEAMDVKLKRQESQQREVDQDDEENSEEDEMDSGTMVRAVGDEMGTVRVASTMTDGANTMIEHDDTLPSQLGTMVINAEDEEEEGTMKRRDETMQPAKPSFLEYFEQKEKENQINSFGKSVPGPLKNSSDWKIPQDGDYEFLKSWTVEDLQKRLLALDPMMEQEIEEIRQKYQSKRQPILDAIEAKKRRQQNF
